Assay results: paper PMC6347294
No constants are given. Whether binding was seen depends on the method and setting. Binding seen in cells or lysates may run through a third protein. Some entries that bind do so weakly or less than the wild type. For some of these results: Where a sequence is shown, tags or fusion partners need not be part of it. Each block holds one molecule with its values, some of them ahead of it.

Amino acid sequences for entries named in this document (tags omitted). A change or cut given only in a name is not applied to a line headed by its entry. Chains listed by the source or under a name are the forms on record and can include a tag or linker.
UniProt Q969H0: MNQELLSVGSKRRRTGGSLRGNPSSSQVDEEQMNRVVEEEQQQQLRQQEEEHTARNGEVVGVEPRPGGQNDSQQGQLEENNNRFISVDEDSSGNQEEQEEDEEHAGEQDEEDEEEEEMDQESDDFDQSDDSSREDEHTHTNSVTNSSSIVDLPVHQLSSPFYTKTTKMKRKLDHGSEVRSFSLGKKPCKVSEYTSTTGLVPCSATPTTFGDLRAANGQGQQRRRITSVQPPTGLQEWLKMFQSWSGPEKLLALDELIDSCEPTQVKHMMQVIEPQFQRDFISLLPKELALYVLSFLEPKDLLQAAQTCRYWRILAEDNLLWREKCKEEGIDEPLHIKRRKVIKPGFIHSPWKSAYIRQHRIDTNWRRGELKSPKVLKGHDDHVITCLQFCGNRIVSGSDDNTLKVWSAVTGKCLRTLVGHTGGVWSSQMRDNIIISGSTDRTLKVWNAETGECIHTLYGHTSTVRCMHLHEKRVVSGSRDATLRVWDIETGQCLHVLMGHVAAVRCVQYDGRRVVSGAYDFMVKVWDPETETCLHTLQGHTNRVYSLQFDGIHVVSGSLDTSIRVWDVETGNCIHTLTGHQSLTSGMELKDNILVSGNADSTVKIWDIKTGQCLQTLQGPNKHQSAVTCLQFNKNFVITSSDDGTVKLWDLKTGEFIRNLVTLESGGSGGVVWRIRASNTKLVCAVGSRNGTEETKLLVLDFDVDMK
Flag-FBW7β (F-box and WD repeat domain-containing protein 7, isoform β) (Q969H0, form named): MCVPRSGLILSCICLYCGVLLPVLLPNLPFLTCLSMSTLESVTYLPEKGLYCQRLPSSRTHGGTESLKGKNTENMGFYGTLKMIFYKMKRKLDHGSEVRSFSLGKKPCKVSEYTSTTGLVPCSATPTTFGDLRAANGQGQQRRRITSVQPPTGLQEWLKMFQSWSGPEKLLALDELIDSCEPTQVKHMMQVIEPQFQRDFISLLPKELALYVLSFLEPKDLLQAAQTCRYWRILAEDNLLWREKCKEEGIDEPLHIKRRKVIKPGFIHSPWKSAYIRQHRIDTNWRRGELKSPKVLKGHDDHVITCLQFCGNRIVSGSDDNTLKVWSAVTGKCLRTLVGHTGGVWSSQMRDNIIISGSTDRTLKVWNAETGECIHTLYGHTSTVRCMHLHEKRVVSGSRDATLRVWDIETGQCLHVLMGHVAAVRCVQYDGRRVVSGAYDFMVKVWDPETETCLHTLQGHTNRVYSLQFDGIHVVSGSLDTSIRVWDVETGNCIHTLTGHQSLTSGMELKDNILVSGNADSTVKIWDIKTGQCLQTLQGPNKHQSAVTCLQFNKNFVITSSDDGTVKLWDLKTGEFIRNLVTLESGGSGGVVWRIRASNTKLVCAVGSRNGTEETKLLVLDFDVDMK
Flag-FBW7γ (F-box and WD repeat domain-containing protein 7, isoform γ) (Q969H0, form named): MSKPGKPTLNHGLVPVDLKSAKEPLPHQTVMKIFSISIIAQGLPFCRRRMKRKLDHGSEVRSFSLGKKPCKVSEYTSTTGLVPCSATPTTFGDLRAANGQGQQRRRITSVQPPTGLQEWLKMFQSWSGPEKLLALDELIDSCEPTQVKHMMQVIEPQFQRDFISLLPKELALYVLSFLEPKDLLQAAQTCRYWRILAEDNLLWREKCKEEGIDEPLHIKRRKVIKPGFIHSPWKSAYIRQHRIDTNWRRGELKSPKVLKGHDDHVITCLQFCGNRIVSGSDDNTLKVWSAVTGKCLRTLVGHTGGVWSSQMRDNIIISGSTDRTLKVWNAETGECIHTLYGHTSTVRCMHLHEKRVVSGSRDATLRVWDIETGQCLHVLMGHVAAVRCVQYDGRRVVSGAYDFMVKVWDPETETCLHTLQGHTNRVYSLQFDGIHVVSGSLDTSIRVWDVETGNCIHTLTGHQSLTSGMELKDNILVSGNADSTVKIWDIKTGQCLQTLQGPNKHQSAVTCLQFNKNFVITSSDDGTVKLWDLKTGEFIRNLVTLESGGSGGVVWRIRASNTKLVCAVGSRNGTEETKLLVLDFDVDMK
UniProt Q3U3T8: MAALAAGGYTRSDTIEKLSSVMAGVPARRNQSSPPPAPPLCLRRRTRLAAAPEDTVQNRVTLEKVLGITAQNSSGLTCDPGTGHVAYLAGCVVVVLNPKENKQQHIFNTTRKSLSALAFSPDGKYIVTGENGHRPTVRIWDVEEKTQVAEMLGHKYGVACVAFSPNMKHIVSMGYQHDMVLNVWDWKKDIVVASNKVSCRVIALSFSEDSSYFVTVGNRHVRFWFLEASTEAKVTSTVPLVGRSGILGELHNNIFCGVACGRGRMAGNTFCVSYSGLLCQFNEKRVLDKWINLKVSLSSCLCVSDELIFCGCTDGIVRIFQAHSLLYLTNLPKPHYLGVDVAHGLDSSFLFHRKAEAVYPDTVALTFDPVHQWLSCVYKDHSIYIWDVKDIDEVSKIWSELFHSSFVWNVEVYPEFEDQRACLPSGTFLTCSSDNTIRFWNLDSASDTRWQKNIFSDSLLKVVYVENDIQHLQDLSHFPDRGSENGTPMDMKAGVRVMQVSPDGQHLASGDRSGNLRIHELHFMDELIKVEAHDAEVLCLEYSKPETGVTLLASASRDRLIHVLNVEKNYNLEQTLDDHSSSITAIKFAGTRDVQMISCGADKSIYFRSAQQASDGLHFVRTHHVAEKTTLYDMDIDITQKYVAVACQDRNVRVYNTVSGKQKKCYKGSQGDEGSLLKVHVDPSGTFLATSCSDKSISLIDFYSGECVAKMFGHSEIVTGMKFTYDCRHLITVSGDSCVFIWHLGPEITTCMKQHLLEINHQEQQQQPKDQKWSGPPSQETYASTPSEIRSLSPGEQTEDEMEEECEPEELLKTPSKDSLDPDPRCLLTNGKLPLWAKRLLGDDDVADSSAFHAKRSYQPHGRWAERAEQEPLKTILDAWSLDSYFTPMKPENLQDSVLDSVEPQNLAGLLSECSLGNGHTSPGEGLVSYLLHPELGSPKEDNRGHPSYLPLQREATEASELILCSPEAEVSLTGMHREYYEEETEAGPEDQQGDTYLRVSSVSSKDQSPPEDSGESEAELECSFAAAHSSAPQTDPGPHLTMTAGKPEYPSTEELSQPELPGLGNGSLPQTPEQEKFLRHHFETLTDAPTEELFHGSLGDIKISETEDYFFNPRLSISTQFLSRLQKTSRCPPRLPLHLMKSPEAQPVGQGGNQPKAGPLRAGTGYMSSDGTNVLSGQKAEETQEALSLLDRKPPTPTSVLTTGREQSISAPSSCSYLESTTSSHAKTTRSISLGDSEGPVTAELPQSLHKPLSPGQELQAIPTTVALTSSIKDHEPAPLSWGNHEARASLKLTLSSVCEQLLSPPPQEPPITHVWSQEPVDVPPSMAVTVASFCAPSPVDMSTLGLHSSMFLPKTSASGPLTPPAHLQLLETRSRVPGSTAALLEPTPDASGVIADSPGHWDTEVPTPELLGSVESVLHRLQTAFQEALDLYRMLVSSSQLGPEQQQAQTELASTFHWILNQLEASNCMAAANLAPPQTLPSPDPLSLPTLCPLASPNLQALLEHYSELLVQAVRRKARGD

Experiments:
[1] = molecular target: WDR62 T1053A (as used in Fig 6B) (human) (UniProt O43379); experiment: co-IP; HEK293 cells transfected with tagged constructs; lysates immunoprecipitated with HA or Flag antibody and immunoblotted; in S7 Fig cells were treated with MG132 for 4 hours before lysis
HA-FBW7α (S7 Fig) = HA-FBW7α (S7 Fig) (UniProt Q969H0); experiment: as above
[2] = molecular target: Flag-FBW7α (F-box and WD repeat domain-containing protein 7, isoform α) (UniProt Q969H0); experiment: as above
[3] = molecular target: Flag-FBW7β (F-box and WD repeat domain-containing protein 7, isoform β) (UniProt Q969H0); experiment: as above
[4] = molecular target: Flag-FBW7γ (F-box and WD repeat domain-containing protein 7, isoform γ) (UniProt Q969H0); experiment: as above
[5] = molecular target: T1, endogenous MEKK3 of E14.5 mouse cortex (mouse (endogenous in E14.5 cortex)) (UniProt Q61084); experiment: co-IP; E14.5 mouse cortical lysate immunoprecipitated with anti-MEKK3 antibody, probed for MEKK3 and WDR62
T1 sequence: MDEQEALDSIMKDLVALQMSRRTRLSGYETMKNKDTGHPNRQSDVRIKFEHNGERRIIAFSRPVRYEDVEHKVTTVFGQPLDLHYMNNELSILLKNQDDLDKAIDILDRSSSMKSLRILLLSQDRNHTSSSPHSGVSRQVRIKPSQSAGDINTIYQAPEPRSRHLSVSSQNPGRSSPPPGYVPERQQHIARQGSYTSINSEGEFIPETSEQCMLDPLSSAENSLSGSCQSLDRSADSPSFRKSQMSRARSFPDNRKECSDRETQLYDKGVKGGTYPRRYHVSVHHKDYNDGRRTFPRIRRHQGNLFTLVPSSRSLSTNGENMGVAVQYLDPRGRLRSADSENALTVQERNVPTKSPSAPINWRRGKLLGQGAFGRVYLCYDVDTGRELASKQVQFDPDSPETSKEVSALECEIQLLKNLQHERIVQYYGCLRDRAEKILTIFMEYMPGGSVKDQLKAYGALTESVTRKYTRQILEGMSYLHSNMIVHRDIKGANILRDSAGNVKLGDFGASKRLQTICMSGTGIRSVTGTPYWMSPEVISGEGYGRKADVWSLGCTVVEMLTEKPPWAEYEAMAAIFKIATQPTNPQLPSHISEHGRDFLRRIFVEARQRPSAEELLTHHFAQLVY

[6] = molecular target: HA-WDR62 (WD repeat domain 62), wild type (human) (UniProt O43379); experiment: co-IP; HEK293 cells transfected with tagged constructs; lysates immunoprecipitated with HA or Flag antibody and immunoblotted; in S7 Fig cells were treated with MG132 for 4 hours before lysis
[7] = molecular target: T2, GST-fused WDR62 C1 (aa1314-1523) (human) (UniProt O43379); experiment: pull-down; in vitro-transcribed and translated MEKK3 with purified GST-fused WDR62 fragments or GST; only the target purified
T2 sequence: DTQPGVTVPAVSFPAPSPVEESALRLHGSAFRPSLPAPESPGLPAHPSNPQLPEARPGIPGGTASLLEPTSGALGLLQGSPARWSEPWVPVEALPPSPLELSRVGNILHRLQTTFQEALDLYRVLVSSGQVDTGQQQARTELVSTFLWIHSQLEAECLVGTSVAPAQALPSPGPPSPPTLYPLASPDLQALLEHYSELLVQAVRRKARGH

[8] = molecular target: T3, GST-fused WDR62 C2 (aa1018-1523) (human) (UniProt O43379); experiment: as above
T3 sequence: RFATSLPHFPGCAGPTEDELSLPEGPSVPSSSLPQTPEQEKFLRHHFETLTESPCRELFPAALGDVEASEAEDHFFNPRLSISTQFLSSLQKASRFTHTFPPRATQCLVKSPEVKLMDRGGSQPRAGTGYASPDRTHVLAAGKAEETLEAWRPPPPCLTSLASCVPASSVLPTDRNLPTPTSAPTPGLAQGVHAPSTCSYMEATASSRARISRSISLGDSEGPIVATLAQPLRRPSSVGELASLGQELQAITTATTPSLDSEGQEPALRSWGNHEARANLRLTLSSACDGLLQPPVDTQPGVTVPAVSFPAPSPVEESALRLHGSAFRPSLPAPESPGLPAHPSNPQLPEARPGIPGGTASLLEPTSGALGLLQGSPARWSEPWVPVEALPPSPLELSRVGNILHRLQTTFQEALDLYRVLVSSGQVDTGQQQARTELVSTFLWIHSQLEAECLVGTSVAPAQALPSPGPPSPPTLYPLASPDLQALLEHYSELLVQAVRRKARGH

Molecule: Flag-FBW7α (F-box and WD repeat domain-containing protein 7, isoform α) (from UniProt Q969H0-1 1-707)
binding [1]: binds weakly

Molecule: Flag-WDR62, wild type (S7 Fig) (from UniProt O43379-4 1-1523)
binding (HA-FBW7α (S7 Fig)): binds

Molecule: Flag-WDR62-T1053A (S7 Fig) (from UniProt O43379-4 1-1523)
binding (HA-FBW7α (S7 Fig)): binds weakly

B1: Flag-MEKK3 (mitogen-activated protein kinase kinase kinase 3) (enzyme, UniProt Q99759 1-626)
chain: MDEQEALNSIMNDLVALQMNRRHRMPGYETMKNKDTGHSNRQSDVRIKFEHNGERRIIAFSRPVKYEDVEHKVTTVFGQPLDLHYMNNELSILLKNQDDLDKAIDILDRSSSMKSLRILLLSQDRNHNSSSPHSGVSRQVRIKASQSAGDINTIYQPPEPRSRHLSVSSQNPGRSSPPPGYVPERQQHIARQGSYTSINSEGEFIPETSEQCMLDPLSSAENSLSGSCQSLDRSADSPSFRKSRMSRAQSFPDNRQEYSDRETQLYDKGVKGGTYPRRYHVSVHHKDYSDGRRTFPRIRRHQGNLFTLVPSSRSLSTNGENMGLAVQYLDPRGRLRSADSENALSVQERNVPTKSPSAPINWRRGKLLGQGAFGRVYLCYDVDTGRELASKQVQFDPDSPETSKEVSALECEIQLLKNLQHERIVQYYGCLRDRAEKTLTIFMEYMPGGSVKDQLKAYGALTESVTRKYTRQILEGMSYLHSNMIVHRDIKGANILRDSAGNVKLGDFGASKRLQTICMSGTGMRSVTGTPYWMSPEVISGEGYGRKADVWSLGCTVVEMLTEKPPWAEYEAMAAIFKIATQPTNPQLPSHISEHGRDFLRRIFVEARQRPSAEELLTHHFAQLMY
binding [6]: binds

Next, values leading:

binding [2]: binds
binding [3]: no binding
binding [4]: binds
Molecule: HA-WDR62 (WD repeat domain 62), wild type (from UniProt O43379-4 1-1523)

binding [5]: binds
Molecule: endogenous WDR62 of E14.5 mouse cortex (from UniProt Q3U3T8 1-1523)

binding [7]: no binding
binding [8]: binds
B2: in vitro-transcribed and translated MEKK3 (enzyme, UniProt Q99759 1-626)
chain: B1 chain
